These results are taken from article PMC5803408 (Structure (London, England : 1993), 2018).

The target in this experiment is T1, human UHRF1 TTD-PHD dual domains (residues 126-366) D142A/E153A (human, UniProt Q96T88 126-366, D142A | E153A).
T1 sequence (looked up): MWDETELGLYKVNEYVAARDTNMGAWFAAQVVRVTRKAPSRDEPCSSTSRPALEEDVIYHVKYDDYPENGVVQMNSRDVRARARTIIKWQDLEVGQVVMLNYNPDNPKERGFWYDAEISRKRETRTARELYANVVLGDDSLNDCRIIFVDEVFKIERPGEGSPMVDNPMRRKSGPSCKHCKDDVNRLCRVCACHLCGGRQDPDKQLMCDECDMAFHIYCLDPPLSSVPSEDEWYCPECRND
Put plainly: ITC. On the technique in general: Isothermal titration calorimetry measures the heat released or taken up as one component is titrated into another.

B1: histone H3 peptide ([…]) trimethylated at lysine 9, followed by a C-terminal tyrosine (peptide)
peptide: not shown
modifications: trimethyl-lysine at 9
Consider B1, for which the “fold reduction of affinity against wild-type TTD-PHD” value is around 4 fold.
